The other results are listed elsewhere or left out.
What was measured:
Assay in all cases: glycan array binding signal (z-score within array); higher = stronger binding
Details in all cases: glycan notation: IUPAC condensed, linker removed
[1] = biological target: GlcNAc(b1-3)Gal(b1-4)GlcNAc(b1-3)Gal(b1-4)GlcNAc(b1-2)[GlcNAc(b1-3)Gal(b1-4)GlcNAc(b1-3)Gal(b1-4)GlcNAc(b1-6)]Man(a1-6)[GlcNAc(b1-3)Gal(b1-4)GlcNAc(b1-3)Gal(b1-4)GlcNAc(b1-2)Man(a1-3)]Man(b1-4)GlcNAc(b1-4)[Fuc(a1-6)]GlcNAc
Outline: (§1)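 From the Consortium for Functional Glycomics database, 3228 arrays were curated, keeping only those whose protein sequence was available. Binding is given as a within-array Z-score averaged across arrays sharing a protein sequence and across linkers. Negative Z-scores can be read as non-binding.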

[2] = biological target: GlcNAc(b1-3)Gal(b1-4)GlcNAc(b1-3)Gal(b1-4)GlcNAc(b1-3)Gal(b1-4)GlcNAc(b1-2)Man(a1-3)[GlcNAc(b1-3)Gal(b1-4)GlcNAc(b1-3)Gal(b1-4)GlcNAc(b1-3)Gal(b1-4)GlcNAc(b1-2)Man(a1-6)]Man(b1-4)GlcNAc(b1-4)GlcNAc
Outline: as §1

[3] = biological target: GlcNAc(b1-3)Gal(b1-4)GlcNAc(b1-3)Gal(b1-4)GlcNAc(b1-3)Gal(b1-4)GlcNAc(b1-2)Man(a1-3)[GlcNAc(b1-3)Gal(b1-4)GlcNAc(b1-3)Gal(b1-4)GlcNAc(b1-3)Gal(b1-4)GlcNAc(b1-2)Man(a1-6)]Man(b1-4)GlcNAc(b1-4)[Fuc(a1-6)]GlcNAc
Outline: as §1

[4] = biological target: GlcNAc(b1-3)Gal(b1-4)GlcNAc(b1-3)Gal(b1-4)GlcNAc(b1-3)Gal(b1-4)GlcNAc(b1-2)[GlcNAc(b1-3)Gal(b1-4)GlcNAc(b1-3)Gal(b1-4)GlcNAc(b1-3)Gal(b1-4)GlcNAc(b1-6)]Man(a1-6)[GlcNAc(b1-3)Gal(b1-4)GlcNAc(b1-3)Gal(b1-4)GlcNAc(b1-3)Gal(b1-4)GlcNAc(b1-2)Man(a1-3)]Man(b1-4)GlcNAc(b1-4)[Fuc(a1-6)]GlcNAc
Outline: as §1

[5] = biological target: GlcNAc(b1-3)Gal(b1-4)GlcNAc(b1-3)Gal(b1-4)GlcNAc(b1-3)Gal(b1-4)GlcNAc(b1-3)Gal(b1-4)GlcNAc(b1-2)Man(a1-3)[GlcNAc(b1-3)Gal(b1-4)GlcNAc(b1-3)Gal(b1-4)GlcNAc(b1-3)Gal(b1-4)GlcNAc(b1-3)Gal(b1-4)GlcNAc(b1-2)Man(a1-6)]Man(b1-4)GlcNAc(b1-4)GlcNAc
Outline: as §1

[6] = biological target: GlcNAc(b1-3)Gal(b1-4)GlcNAc(b1-3)Gal(b1-4)GlcNAc(b1-3)Gal(b1-4)GlcNAc(b1-3)Gal(b1-4)GlcNAc(b1-2)Man(a1-3)[GlcNAc(b1-3)Gal(b1-4)GlcNAc(b1-3)Gal(b1-4)GlcNAc(b1-3)Gal(b1-4)GlcNAc(b1-3)Gal(b1-4)GlcNAc(b1-2)Man(a1-6)]Man(b1-4)GlcNAc(b1-4)[Fuc(a1-6)]GlcNAc
Outline: as §1

[7] = biological target: GlcNAc(b1-3)Gal(b1-4)GlcNAc(b1-3)Gal(b1-4)GlcNAc(b1-3)Gal(b1-4)GlcNAc(b1-3)Gal(b1-4)GlcNAc(b1-2)[GlcNAc(b1-3)Gal(b1-4)GlcNAc(b1-3)Gal(b1-4)GlcNAc(b1-3)Gal(b1-4)GlcNAc(b1-3)Gal(b1-4)GlcNAc(b1-6)]Man(a1-6)[GlcNAc(b1-3)Gal(b1-4)GlcNAc(b1-3)Gal(b1-4)GlcNAc(b1-3)Gal(b1-4)GlcNAc(b1-3)Gal(b1-4)GlcNAc(b1-2)Man(a1-3)]Man(b1-4)GlcNAc(b1-4)[Fuc(a1-6)]GlcNAc
Outline: as §1

[8] = biological target: GlcNAc(b1-3)Gal(b1-4)GlcNAc(b1-3)Gal(b1-4)GlcNAc(b1-3)GalNAc
Outline: as §1

[9] = biological target: GlcNAc(b1-3)Gal(b1-4)GlcNAc(b1-3)GalNAc
Outline: as §1

[10] = biological target: GlcNAc(b1-3)Gal(b1-4)GlcNAc(b1-3)[GlcNAc(b1-3)Gal(b1-4)GlcNAc(b1-3)]GalNAc
Outline: as §1

[11] = biological target: GlcNAc(b1-3)Gal(b1-4)GlcNAc(b1-6)[Gal(b1-3)]GalNAc
Outline: as §1

[12] = biological target: GlcNAc(b1-3)Gal(b1-4)GlcNAc(b1-6)[GlcNAc(b1-3)Gal(b1-3)]GalNAc
Outline: as §1

[13] = biological target: GlcNAc(b1-3)Gal(b1-4)GlcNAc(b1-6)[GlcNAc(b1-3)]Gal(b1-4)GlcNAc
Outline: as §1

GlcNAc(b1-3)GalNAc = biological target: GlcNAc(b1-3)GalNAc
Outline: as §1

GlcNAc(b1-3)Man = biological target: GlcNAc(b1-3)Man
Outline: as §1

[14] = biological target: GlcNAc(b1-3)[GlcNAc(b1-4)][GlcNAc(b1-6)]GlcNAc
Outline: as §1

[15] = biological target: GlcNAc(b1-3)[GlcNAc(b1-6)]Gal(b1-4)GlcNAc
Outline: as §1

[16] = biological target: GlcNAc(b1-3)[GlcNAc(b1-6)]GalNAc
Outline: as §1

[17] = biological target: GlcNAc(b1-4)Gal(b1-4)GlcNAc
Outline: as §1

GlcNAc(b1-4)GlcNAc = biological target: GlcNAc(b1-4)GlcNAc
Outline: as §1

[18] = biological target: GlcNAc(b1-4)GlcNAc(b1-4)GlcNAc
Outline: as §1

[19] = biological target: GlcNAc(b1-4)GlcNAc(b1-4)GlcNAc(b1-4)GlcNAc(b1-4)GlcNAc
Outline: as §1

[20] = biological target: GlcNAc(b1-4)GlcNAc(b1-4)GlcNAc(b1-4)GlcNAc(b1-4)GlcNAc(b1-4)GlcNAc
Outline: as §1

[21] = biological target: GlcNAc(b1-4)[GlcNAc(b1-6)]GalNAc
Outline: as §1

[22] = biological target: GlcNAc(b1-6)Gal(b1-4)GlcNAc
Outline: as §1

GlcNAc(b1-6)GalNAc = biological target: GlcNAc(b1-6)GalNAc
Outline: as §1

[23] = biological target: GlcNAc6S(b1-3)Gal(b1-4)GlcNAc
Outline: as §1

Kdn(a2-3)Gal(b1-3)GalNAc = biological target: Kdn(a2-3)Gal(b1-3)GalNAc
Outline: as §1

Kdn(a2-3)Gal(b1-3)GlcNAc = biological target: Kdn(a2-3)Gal(b1-3)GlcNAc
Outline: as §1

Kdn(a2-3)Gal(b1-4)Glc = biological target: Kdn(a2-3)Gal(b1-4)Glc
Outline: as §1

Kdn(a2-3)Gal(b1-4)GlcNAc = biological target: Kdn(a2-3)Gal(b1-4)GlcNAc
Outline: as §1

[24] = biological target: Kdn(a2-3)Gal(b1-4)[Fuc(a1-3)]GlcNAc
Outline: as §1

Kdn(a2-6)Gal(b1-4)GlcNAc = biological target: Kdn(a2-6)Gal(b1-4)GlcNAc
Outline: as §1

[25] = biological target: Man(a1-2)Man(a1-2)Man(a1-3)Man
Outline: as §1

[26] = biological target: Man(a1-2)Man(a1-2)Man(a1-6)[Man(a1-3)]Man
Outline: as §1

Man(a1-2)Man(a1-3)Man = biological target: Man(a1-2)Man(a1-3)Man
Outline: as §1

[27] = biological target: Man(a1-2)Man(a1-3)[Man(a1-2)Man(a1-6)]Man
Outline: as §1

[28] = biological target: Man(a1-2)Man(a1-3)[Man(a1-2)Man(a1-6)]Man(a1-6)[Man(a1-2)Man(a1-2)Man(a1-3)]Man
Outline: as §1

B1: FliD (Clostridium difficile) (protein)
chain: MSSISPVRVTGLSGNFDMEGIIEASMIRDKEKVNKAKQDQQIVKWKQEIYRDIIKESKNLYDKYLNGDSPNSITNKKAYSATRITSSDESIIVAKGSAGAEKINYQFAVSQMAEPAKVTIKLNSSDPIVQQFPPNASGASSLNIGGVNIPISEQDTTSTIVSKINSLCADNDIRASYSEMTGELIISRKQTGSSSDIDLKVIGNDSLAGQIASDNGITFTTDASGTKSAVVYGKNLEADVTDDQGRVTHISKEQNSFKIDNIDYNVNSKGSAKLVSVTDTEEATKNMKAFVDDYNALMDKVYGLVTTKKSKDYPPLTDEQKDDMTTEEIEKWEKKAKEGILRNDDELRAFVEDIQSMFFGDADTIIALRKLGISEHENYNKKGQISFNADTFSKALIDDSDKVYKALAGYSSNYDDKGMFEKLKKIVFEYSGSSASKLTKKAGMENSSSASQNVYSKQIAEQERNISRLVEKMNDKEKRLYAKYSALESLLNKYSSQMNYFSQAQGN
- glycan array binding signal (z-score) [1]: -0.202
- glycan array binding signal (z-score) [2]: -0.213
- glycan array binding signal (z-score) [3]: -0.116
- glycan array binding signal (z-score) [4]: -0.16
- glycan array binding signal (z-score) [5]: -0.101
- glycan array binding signal (z-score) [6]: -0.211
- glycan array binding signal (z-score) [7]: -0.178
- glycan array binding signal (z-score) [8]: -0.267
- glycan array binding signal (z-score) [9]: -0.132
- glycan array binding signal (z-score) [10]: -0.249
- glycan array binding signal (z-score) [11]: -0.24
- glycan array binding signal (z-score) [12]: -0.192
- glycan array binding signal (z-score) [13]: -0.158
- glycan array binding signal (z-score) (GlcNAc(b1-3)GalNAc): -0.178
- glycan array binding signal (z-score) (GlcNAc(b1-3)Man): -0.129
- glycan array binding signal (z-score) [14]: -0.259
- glycan array binding signal (z-score) [15]: -0.024
- glycan array binding signal (z-score) [16]: -0.188
- glycan array binding signal (z-score) [17]: -0.232
- glycan array binding signal (z-score) (GlcNAc(b1-4)GlcNAc): -0.162
- glycan array binding signal (z-score) [18]: -0.054
- glycan array binding signal (z-score) [19]: -0.164
- glycan array binding signal (z-score) [20]: 0.011
- glycan array binding signal (z-score) [21]: -0.145
- glycan array binding signal (z-score) [22]: 0.038
- glycan array binding signal (z-score) (GlcNAc(b1-6)GalNAc): -0.013
- glycan array binding signal (z-score) [23]: -0.077
- glycan array binding signal (z-score) (Kdn(a2-3)Gal(b1-3)GalNAc): 0.086
- glycan array binding signal (z-score) (Kdn(a2-3)Gal(b1-3)GlcNAc): -0.233
- glycan array binding signal (z-score) (Kdn(a2-3)Gal(b1-4)Glc): -0.172
- glycan array binding signal (z-score) (Kdn(a2-3)Gal(b1-4)GlcNAc): -0.204
- glycan array binding signal (z-score) [24]: 0.919
- glycan array binding signal (z-score) (Kdn(a2-6)Gal(b1-4)GlcNAc): -0.101
- glycan array binding signal (z-score) [25]: -0.247
- glycan array binding signal (z-score) [26]: -0.014
- glycan array binding signal (z-score) (Man(a1-2)Man(a1-3)Man): -0.195
- glycan array binding signal (z-score) [27]: -0.196
- glycan array binding signal (z-score) [28]: -0.075
